{
  "source": "PubChem BioAssay AID624417",
  "about": "(National Center for Advancing Translational Sciences (NCATS), 2012)",
  "note": "The whole screen tested about 410,000 compounds, of which about 6,400 (1.6%) were called active. Inconclusive results, whose numbers are uncertain, are shown with a selection of clear calls. The call rests on the fitted dose curve; in most records, active means well fitted inhibition curve with a large enough effect; inconclusive means small, poorly fitted or top-dose-only effect; inactive means no such curve, though single readings can be large or run the other way. No potency is given beside an inconclusive call; the fits are too rough. On the % scale 0 is the no-effect control and ±100 the full control effect; potency means the concentration at half of the fitted maximal effect; tags describe the fitted curve by direction and shape.",
  "data": [
    {"target": "Glucagon-like peptide 1 receptor (Homo sapiens) (UniProt P43220)", "sequence (P43220 whole entry, looked up)": "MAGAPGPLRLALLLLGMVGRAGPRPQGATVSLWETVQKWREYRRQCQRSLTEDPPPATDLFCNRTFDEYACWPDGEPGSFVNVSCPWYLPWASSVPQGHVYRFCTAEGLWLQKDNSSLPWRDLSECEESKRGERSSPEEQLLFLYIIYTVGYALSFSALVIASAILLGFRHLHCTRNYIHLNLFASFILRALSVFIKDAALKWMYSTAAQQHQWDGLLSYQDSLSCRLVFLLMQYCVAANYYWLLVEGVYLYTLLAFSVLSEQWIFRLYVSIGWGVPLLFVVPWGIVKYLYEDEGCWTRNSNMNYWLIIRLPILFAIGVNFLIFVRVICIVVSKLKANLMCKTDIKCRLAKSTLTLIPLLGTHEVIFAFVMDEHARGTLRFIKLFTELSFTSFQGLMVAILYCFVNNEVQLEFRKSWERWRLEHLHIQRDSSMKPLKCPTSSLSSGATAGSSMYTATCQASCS", "experiment": "qHTS of GLP-1 Receptor Inverse Agonists (Inhibition Mode); further: nearly all actives have a fitted effect of over 55% in size", "conditions": "HEK293 GLP-1R CRE-luciferase, luminescence, 24 h, GLP-1R form is constitutively active; activity change, negative = inhibition: at 38.3 µM (top of the series) unless noted", "procedure,_shortened": "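Seeding at 200 cells/uL, 12 h culture, 24 hr compound treatment, then luciferase reagent and a luminescence read; cells are HEK293 stably expressing a constitutively active GLP-1R plus cAMP-responsive luciferase.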", "values": [
      {"smiles": "Cc1cc(C(=O)CCl)c(C)n1CCc1ccc(Cl)cc1", "Potency": "inconclusive [inhibitor, single point]"},
      {"smiles": "CN(C)c1ncc(C(=O)NCc2ccccc2Cl)cn1", "activity change, negative = inhibition": "inactive: 12.9%"},
      {"smiles": "CCN(CC)c1ccc(/C=N/NC(=O)c2cnccn2)c(O)c1", "Potency": "inconclusive [inhibitor, partial curve, poor fit]"},
      {"smiles": "CCc1ccc2c(c1)c1nc(C)sc1n2CC", "Potency": "inconclusive [inhibitor, single point]"},
      {"smiles": "CC1CC(C)CN(C(=O)CNC(=O)c2ccc3ccccc3c2)C1", "note": "(centres undefined)", "Potency": "inconclusive [inhibitor, single point]"},
      {"smiles": "COc1cccc(/C=N/NC(=S)NCc2ccco2)c1OC", "Potency": "inconclusive [inhibitor, single point]"},
      {"smiles": "COc1cc2c(cc1OC)CN(C(=O)c1cc(COc3ccccc3SC)on1)CC2", "activity change, negative = inhibition": "inactive: -0.74%"},
      {"smiles": "COC(=O)c1ccc(COC(=O)c2c(C)nn(Cc3ccccc3Cl)c2Cl)o1", "Potency": "inconclusive [inhibitor, single point]"},
      {"smiles": "COc1cc(OC)cc(C(=O)NCC(=O)OCc2ccc(Cl)c(Cl)c2)c1", "Potency": "inconclusive [inhibitor, single point]"},
      {"smiles": "Nc1ncnc2c1ncn2[C@@H]1O[C@H](COP(=O)(O)O)[C@@H](O)[C@H]1O", "activity change, negative = inhibition": "inactive: 6.11%"},
      {"smiles": "CCn1c(SCC(=O)Nc2ccccc2OC)nc(O)cc1=O", "Potency": "inconclusive [inhibitor, partial curve, poor fit]"},
      {"smiles": "Oc1c(Br)cc(Br)cc1C=Nc1cccnc1", "Potency": "inconclusive [inhibitor, single point]"},
      {"smiles": "O=C(/C=C/Nc1ccc(Br)cn1)c1cccc(OC(F)F)c1", "Potency": "inconclusive [inhibitor, single point]"},
      {"smiles": "O=C1CCN(Cc2ccccc2)CCN1[C@H](COc1ccccc1)Cc1ccccc1", "Potency": "inconclusive [inhibitor, single point]"},
      {"smiles": "CSCCC(C(=O)NCc1ccccc1)n1c(C2CCN(C(C)=O)CC2)nc2ccccc21", "note": "(centres undefined)", "activity change, negative = inhibition": "inactive: -6.78%"},
      {"smiles": "O=C(c1cc(-c2cccs2)on1)N1CCN(c2ccccc2)CC1", "Potency": "inconclusive [inhibitor, partial curve, poor fit]"},
      {"smiles": "Cc1cc(C)cc(NS(=O)(=O)CCCS(=O)(=O)Nc2cc(C)cc(C)c2)c1", "Potency": "inconclusive [inhibitor, full curve, poor fit]"},
      {"smiles": "CNc1ccc(/C=C/C(=O)c2cccc3ccccc23)cc1[N+](=O)[O-]", "Potency": "inconclusive [inhibitor, single point]"},
      {"smiles": "CC[n+]1c(/C=C2\\C=C(C)CC(C)C2)sc2ccccc21", "note": "(centres undefined)", "Potency": "inconclusive [inhibitor, single point]"}
    ]}
  ]
}
